Experimental data reported in article PMC7865452.
Substitutions are numbered along the chain they refer to. No constants are given. Whether binding was seen depends on the method and setting. Binding seen in cells or lysates may run through a third protein. Some binding calls cover weakened binding; strength is not graded here. For some of these results: Where a sequence is shown, tags or fusion partners need not be part of it.

The chains behind the UniProt entries cited, without tags or fusion partners.
UniProt O95292: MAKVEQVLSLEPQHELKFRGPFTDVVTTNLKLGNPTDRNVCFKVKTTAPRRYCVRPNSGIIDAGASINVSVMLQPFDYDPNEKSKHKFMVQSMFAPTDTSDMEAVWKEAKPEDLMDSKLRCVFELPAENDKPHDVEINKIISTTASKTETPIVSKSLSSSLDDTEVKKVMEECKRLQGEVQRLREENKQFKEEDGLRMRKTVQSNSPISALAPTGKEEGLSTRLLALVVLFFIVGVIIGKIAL
UniProt O75340: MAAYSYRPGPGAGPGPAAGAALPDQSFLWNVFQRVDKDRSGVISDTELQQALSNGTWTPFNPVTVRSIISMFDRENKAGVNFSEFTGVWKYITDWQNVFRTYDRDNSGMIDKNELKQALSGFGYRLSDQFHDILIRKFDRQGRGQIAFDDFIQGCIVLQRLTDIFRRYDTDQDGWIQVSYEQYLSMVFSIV
UniProt Q8WUM4: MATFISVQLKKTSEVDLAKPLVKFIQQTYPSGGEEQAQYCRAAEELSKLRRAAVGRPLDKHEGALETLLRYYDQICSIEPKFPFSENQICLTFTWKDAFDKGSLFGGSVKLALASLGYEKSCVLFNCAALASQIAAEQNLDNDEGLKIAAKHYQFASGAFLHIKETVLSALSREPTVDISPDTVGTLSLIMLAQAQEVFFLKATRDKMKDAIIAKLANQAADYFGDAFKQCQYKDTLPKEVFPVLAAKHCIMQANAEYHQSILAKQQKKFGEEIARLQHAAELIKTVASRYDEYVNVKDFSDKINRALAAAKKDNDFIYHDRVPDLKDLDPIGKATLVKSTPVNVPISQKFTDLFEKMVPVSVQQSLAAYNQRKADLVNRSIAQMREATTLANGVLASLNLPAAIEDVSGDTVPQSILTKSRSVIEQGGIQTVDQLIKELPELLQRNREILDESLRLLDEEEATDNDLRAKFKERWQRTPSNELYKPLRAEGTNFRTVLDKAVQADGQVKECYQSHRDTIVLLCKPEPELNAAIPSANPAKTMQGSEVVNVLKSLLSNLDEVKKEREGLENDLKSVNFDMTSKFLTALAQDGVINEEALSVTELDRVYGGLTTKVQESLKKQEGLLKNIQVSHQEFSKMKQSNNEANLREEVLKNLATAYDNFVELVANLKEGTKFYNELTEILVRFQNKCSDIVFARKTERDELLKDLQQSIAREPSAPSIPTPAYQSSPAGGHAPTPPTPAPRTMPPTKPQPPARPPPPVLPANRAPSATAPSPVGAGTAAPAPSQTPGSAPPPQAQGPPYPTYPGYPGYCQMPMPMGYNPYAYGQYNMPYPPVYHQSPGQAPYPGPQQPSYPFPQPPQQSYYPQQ
UniProt P50995: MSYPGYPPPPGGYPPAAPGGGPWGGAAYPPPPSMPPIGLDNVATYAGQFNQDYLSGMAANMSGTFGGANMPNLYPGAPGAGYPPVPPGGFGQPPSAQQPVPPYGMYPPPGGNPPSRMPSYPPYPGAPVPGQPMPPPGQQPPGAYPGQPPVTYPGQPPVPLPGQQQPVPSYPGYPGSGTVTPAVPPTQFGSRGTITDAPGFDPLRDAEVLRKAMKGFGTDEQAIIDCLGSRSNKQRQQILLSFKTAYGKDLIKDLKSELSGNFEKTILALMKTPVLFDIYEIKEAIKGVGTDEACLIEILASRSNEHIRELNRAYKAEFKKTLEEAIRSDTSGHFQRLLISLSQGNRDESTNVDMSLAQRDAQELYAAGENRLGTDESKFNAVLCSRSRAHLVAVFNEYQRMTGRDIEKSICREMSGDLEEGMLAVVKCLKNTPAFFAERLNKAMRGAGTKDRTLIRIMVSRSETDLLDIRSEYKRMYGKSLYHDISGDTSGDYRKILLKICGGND
UniProt Q99816: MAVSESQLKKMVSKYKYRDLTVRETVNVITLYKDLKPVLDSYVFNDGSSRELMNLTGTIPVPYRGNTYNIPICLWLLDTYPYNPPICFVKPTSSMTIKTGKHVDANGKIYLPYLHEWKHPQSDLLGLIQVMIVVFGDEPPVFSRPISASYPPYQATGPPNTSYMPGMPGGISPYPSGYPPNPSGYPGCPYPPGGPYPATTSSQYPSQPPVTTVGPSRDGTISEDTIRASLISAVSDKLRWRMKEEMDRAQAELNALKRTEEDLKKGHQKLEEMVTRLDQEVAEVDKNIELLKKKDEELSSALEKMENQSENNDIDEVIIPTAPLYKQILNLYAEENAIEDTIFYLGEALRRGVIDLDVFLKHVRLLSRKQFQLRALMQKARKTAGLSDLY
UniProt Q8NDC0: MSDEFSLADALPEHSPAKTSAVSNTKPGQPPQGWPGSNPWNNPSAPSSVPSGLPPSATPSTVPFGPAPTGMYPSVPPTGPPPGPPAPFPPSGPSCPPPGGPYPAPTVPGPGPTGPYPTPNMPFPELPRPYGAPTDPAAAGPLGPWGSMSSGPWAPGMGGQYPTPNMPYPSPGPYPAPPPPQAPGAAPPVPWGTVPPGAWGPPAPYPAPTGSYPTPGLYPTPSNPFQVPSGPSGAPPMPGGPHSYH

Experiments:
[1] = biological target: T1, GFP-fused CDIP1 (cell death-inducing p53 target protein 1) (human) (UniProt Q9H305); experiment: co-IP; ALG-2 KO HEK293 cells transfected with GFP-CDIP1, ALG-2 and Myc-tagged ESCRT-I subunits; GFP nanobody; 1 uM CaCl2; Western blot with antibodies against GFP, ALG-2 and Myc tag
T1 sequence: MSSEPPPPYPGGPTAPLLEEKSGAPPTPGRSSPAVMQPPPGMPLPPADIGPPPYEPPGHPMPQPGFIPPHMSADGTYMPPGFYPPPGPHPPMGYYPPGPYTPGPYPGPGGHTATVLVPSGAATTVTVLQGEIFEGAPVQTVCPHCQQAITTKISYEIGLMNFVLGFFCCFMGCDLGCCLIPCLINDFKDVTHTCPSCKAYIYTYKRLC

[2] = biological target: T2, CDIP1 induced with doxycycline in MCF-7 Tet-On CDIP1 cells (human) (UniProt Q9H305); experiment: co-IP; MCF-7 Tet-On CDIP1 cells treated with DOX (100 ng/mL, 24 h); HKM buffer, 1% CHAPS; rabbit polyclonal antibody against CDIP1, Protein G magnetic beads; Western blot (Figure 7A; EGTA or CaCl2 not told for this panel)
T2 sequence: T1 sequence

[3] = biological target: T1, GFP-fused CDIP1 (cell death-inducing p53 target protein 1) (human); experiment: co-IP; cleared lysate of transfected HEK293 (HKM buffer, 0.2% Triton X-100); GST-fused GFP nanobody on glutathione beads; 10 uM CaCl2; overnight, 4 C; Western blot
[4] = biological target: T1, GFP-fused CDIP1 (cell death-inducing p53 target protein 1) (human); experiment: co-IP; cleared lysate of transfected HEK293 (HKM buffer, 0.2% Triton X-100); GST-fused GFP nanobody on glutathione beads; 5 mM EGTA; overnight, 4 C; Western blot
[5] = biological target: T3, GFP-CDIP1 Mut2 (deletion of residues 186 to 191) (human) (UniProt Q9H305); experiment: co-IP; cleared lysate of transfected HEK293 (HKM buffer, 0.2% Triton X-100); GST-fused GFP nanobody on glutathione beads; 10 uM CaCl2; overnight, 4 C; Western blot
T3 sequence: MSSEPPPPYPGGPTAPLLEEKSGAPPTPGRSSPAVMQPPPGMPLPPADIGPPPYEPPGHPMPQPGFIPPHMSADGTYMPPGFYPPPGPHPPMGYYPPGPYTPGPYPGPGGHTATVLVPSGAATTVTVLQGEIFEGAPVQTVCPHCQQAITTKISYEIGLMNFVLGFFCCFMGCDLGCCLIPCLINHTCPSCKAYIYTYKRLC

[6] = biological target: T4, GFP-CDIP1 Mut5 (F187A/D189A) (human) (UniProt Q9H305); experiment: as above
T4 sequence: T1 sequence with F187A, D189A

[7] = biological target: T5, GFP-CDIP1 Mut4 (D189A) (human) (UniProt Q9H305); experiment: as above
T5 sequence: T1 sequence with D189A

[8] = biological target: T6, GFP-CDIP1 Mut3 (F187A) (human) (UniProt Q9H305); experiment: as above
T6 sequence: T1 sequence with F187A

[9] = biological target: VAPB, endogenous in HEK293 cells treated with BFA (human (endogenous in HEK293)) (UniProt O95292); experiment: co-IP; HEK293 treated with BFA (9 h); HKM buffer, 1% CHAPS; rabbit polyclonal antibody against VAPB, Protein G magnetic beads; 10 uM CaCl2; Western blot
[10] = biological target: T1, GFP-fused CDIP1 (cell death-inducing p53 target protein 1) (human); experiment: co-IP; cleared lysate of transfected HEK293 (HKM buffer, 0.2% Triton X-100); GST-fused GFP nanobody on glutathione beads; 100 uM CaCl2; overnight, 4 C; Western blot
[11] = biological target: T7, GFP-CDIP1 Mut1 (deletion of residues 62 to 66) (human) (UniProt Q9H305); experiment: as above
T7 sequence: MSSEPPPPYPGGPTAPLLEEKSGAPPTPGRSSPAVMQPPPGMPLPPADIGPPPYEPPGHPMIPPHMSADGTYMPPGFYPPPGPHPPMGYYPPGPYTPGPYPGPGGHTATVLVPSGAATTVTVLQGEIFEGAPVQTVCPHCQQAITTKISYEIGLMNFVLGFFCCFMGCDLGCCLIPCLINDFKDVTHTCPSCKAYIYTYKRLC

[12] = biological target: VAPB, endogenous in HEK293 cells treated with BFA (human (endogenous in HEK293)) (UniProt O95292); experiment: co-IP; HEK293 treated with BFA (9 h); HKM buffer, 1% CHAPS; rabbit polyclonal antibody against VAPB, Protein G magnetic beads; 5 mM EGTA; Western blot
[13] = biological target: T1, GFP-fused CDIP1 (cell death-inducing p53 target protein 1) (human); experiment: co-IP; ALG-2 KO HEK293 cells transfected with GFP-CDIP1, ALG-2 and Myc-tagged ESCRT-I subunits; GFP nanobody; 5 mM EGTA; Western blot with antibodies against GFP, ALG-2 and Myc tag
[14] = biological target: T1, GFP-fused CDIP1 (cell death-inducing p53 target protein 1) (human); experiment: co-IP; ALG-2 KO HEK293 cells expressing the GFP fusion without ALG-2; GFP nanobody; 5 mM EGTA or 10 uM CaCl2; Western blot
[15] = biological target: T1, GFP-fused CDIP1 (cell death-inducing p53 target protein 1) (human); experiment: co-IP; ALG-2 KO HEK293 cells co-expressing the GFP fusion and ALG-2; GFP nanobody; 10 uM CaCl2; Western blot
[16] = biological target: T2, CDIP1 induced with doxycycline in MCF-7 Tet-On CDIP1 cells (human); experiment: co-IP; MCF-7 Tet-On CDIP1 cells cultured with DOX; antibody against CDIP1; without addition or with 5 mM EGTA or 10 uM CaCl2; Western blot (Figure 7D)

ALG-2 expressed from pCDNA3/ALG-2^WT RNAiR in ALG-2 KO HEK293 cells (from UniProt O75340 1-191)
binding [1]: binds

ALG-2, endogenous in MCF-7 Tet-On CDIP1 cells (from UniProt O75340 1-191)
binding [2]: binds

ALG-2-interacting protein X (ALIX), endogenous in HEK293 cells (from UniProt Q8WUM4 1-868)
binding [3]: no binding

Annexin A11 (ANXA11), endogenous in HEK293 cells (from UniProt P50995 1-505)
binding [3]: no binding

Apoptosis-linked gene 2 (ALG-2), endogenous in HEK293 cells (from UniProt O75340 1-191)
binding [4]: no binding (condition: with 5 mM EGTA) | binding [5]: binds | binding [6]: binds | binding [3]: binds | binding [7]: binds | binding [8]: binds | binding [9]: binds | binding [10]: binds | binding [11]: binds | binding [12]: no binding (condition: with 5 mM EGTA)

ESCRT-I isocomplex 37B/12B (Myc-TSG101, Myc-VPS28, Myc-VPS37B, Myc-MVB12B) (from UniProt Q99816 1-390; Q9UK41 1-221; Q9H9H4 1-285; Q9H7P6 1-319)
binding [1]: binds

ESCRT-I isocomplex 37B/UBAP1 (Myc-TSG101, Myc-VPS28, Myc-VPS37B, Myc-UBAP1) (from UniProt Q99816 1-390; Q9UK41 1-221; Q9H9H4 1-285; Q9NZ09-1 1-502)
binding [1]: binds

ESCRT-I isocomplex 37C/12B (Myc-TSG101, Myc-VPS28, Myc-VPS37C, Myc-MVB12B) (from UniProt Q99816 1-390; Q9UK41 1-221; A5D8V6 1-355; Q9H7P6 1-319)
binding [1]: binds

ESCRT-I isocomplex 37D/12B (Myc-TSG101, Myc-VPS28, Myc-VPS37D, Myc-MVB12B) (from UniProt Q99816 1-390; Q9UK41 1-221; Q86XT2 1-251; Q9H7P6 1-319)
binding [13]: binds weakly | binding [1]: binds weakly

ESCRT-I isocomplex 37D/UBAP1 (Myc-TSG101, Myc-VPS28, Myc-VPS37D, Myc-UBAP1) (from UniProt Q99816 1-390; Q9UK41 1-221; Q86XT2 1-251; Q9NZ09-1 1-502)
binding [13]: binds | binding [1]: binds

MAPK1-interacting and spindle-stabilizing-like (MISSL), endogenous in HEK293 cells (from UniProt Q8NDC0 1-245)
binding [3]: no binding

Myc-MVB12A (from UniProt Q96EY5 1-273)
binding [13]: no binding | binding [1]: no binding

Myc-tagged VAPB (from UniProt O95292 1-243)
binding [5]: no binding | binding [6]: no binding | binding [3]: binds | binding [7]: no binding | binding [8]: binds

TSG101, endogenous in MCF-7 Tet-On CDIP1 cells (from UniProt Q99816 1-390)
binding [2]: binds

Tumor susceptibility gene 101 (TSG101), endogenous in HEK293 cells (from UniProt Q99816 1-390)
binding [4]: binds weakly | binding [14]: binds weakly | binding [5]: binds | binding [6]: binds | binding [3]: binds | binding [7]: binds | binding [8]: binds | binding [10]: binds | binding [15]: binds

Vesicle-associated membrane protein-associated protein B (VAPB), endogenous in MCF-7 Tet-On CDIP1 cells (from UniProt O95292 1-243)
binding [16]: binds
